Laboratory results as given in the supplement of paper PMC4967469.
The IC50 comes from the fitted curve, where viability falls to half of the control; a limit (>, <) means that the fit lies beyond the doses tested. AUC, from the same fit, is the share of area under the viability curve across the 256-fold dose range; values near 1 show little effect. For part of these data: The top dose, if marked as inferred, comes from the curve model; the source does not state it. For part of these data: Where an entry number is given, a second screen of the drug exists; the two often differ.

How the values were obtained:
Experiment in all cases: Viability of human cancer cell lines after 72 h of drug (GDSC screen)
[1] = compound: COc1cc2c(Nc3ccc(NC(=O)c4ccccc4)cc3)ncnc2cc1OCCCN1CCOCC1 [ZM-447439]; details: top dose inferred
Protocol: (§1)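 Human cancer cell lines in 384-well plates, medium with 10% serum, drug for 72 h over a 256-fold dose range (nine 2-fold or five 4-fold steps up to the top dose). Adherent lines were fixed and stained with the nucleic acid dye Syto60, suspension lines read with resazurin; signal relative to control wells, capped at 0 and 100%. One two-parameter sigmoid per drug and line, fitted in a mixed model over all curves with the slope shared within a line.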

[2] = compound: CC(=O)c1c(C)c2cnc(Nc3ccc(N4CCNCC4)cn3)nc2n(C2CCCC2)c1=O [PD-0332991]
Protocol: as §1

[3] = compound: Cn1cnc2c(F)c(Nc3ccc(Br)cc3Cl)c(C(=O)NOCCO)cc21 [AZD6244]; details: screen: GDSC drug entry 1062
Protocol: as §1

Cell Line | AUC [1] | IC50 [1] | AUC [2] | IC50 [2] | AUC [3] | IC50 [3]
COLO-678 (large intestine, semi-adherent, top dose 4 µM) | 0.98 | > 4 µM | 0.879 | > 4 µM | 0.678 | 0.914 µM
COLO-679 (melanoma, adherent, top dose 4 µM) | 0.947 | > 4 µM | 0.904 | > 4 µM | 0.544 | 0.334 µM
COLO-680N (oesophagus, adherent, top dose 4 µM) | 0.925 | > 4 µM | 0.881 | > 4 µM | 0.843 | 3.63 µM
COLO-684 (endometrium, suspension, top dose 4 µM) | 0.968 | > 4 µM | 0.981 | > 4 µM | 0.984 | > 4 µM
COLO-783 (melanoma, adherent, top dose 4 µM) | 0.991 | > 4 µM | 0.901 | > 4 µM | 0.99 | > 4 µM
COLO-800 (melanoma, adherent, top dose 4 µM) | 0.769 | 1.47 µM | 0.658 | 0.675 µM | 0.983 | > 4 µM
COLO-824 (breast, adherent, top dose 4 µM) | 0.86 | 3.46 µM | 0.988 | > 4 µM | 0.982 | > 4 µM
COR-L23 (large cell lung carcinoma, adherent, top dose 4 µM) | 0.862 | 3.26 µM | 0.711 | 0.968 µM | 0.842 | 2.7 µM
COR-L88 (small cell lung carcinoma, adherent, top dose 4 µM) | 0.971 | > 4 µM | 0.986 | > 4 µM | 0.974 | > 4 µM
COR-L95 (small cell lung carcinoma, adherent, top dose 4 µM) | 0.987 | > 4 µM | 0.987 | > 4 µM | 0.987 | > 4 µM
COR-L279 (small cell lung carcinoma, suspension, top dose 4 µM) | 0.951 | > 4 µM | 0.991 | > 4 µM | 0.99 | > 4 µM
COR-L321 (lung, suspension, top dose 4 µM) | 0.954 | > 4 µM | 0.987 | > 4 µM | 0.982 | > 4 µM
CP50-MEL-B (melanoma, adherent, top dose 4 µM) | 0.985 | > 4 µM | 0.935 | > 4 µM | 0.405 | 0.138 µM
CP66-MEL (melanoma, adherent, top dose 4 µM) | 0.977 | > 4 µM | 0.897 | > 4 µM | 0.913 | > 4 µM
CPC-N (small cell lung carcinoma, suspension, top dose 4 µM) | 0.899 | > 4 µM | 0.908 | > 4 µM | 0.935 | > 4 µM
CRO-AP2 (B-cell lymphoma, suspension, top dose 4 µM) | 0.649 | 0.607 µM | 0.672 | 0.703 µM | 0.954 | > 4 µM
CS1 (bone, adherent, top dose 4 µM) | 0.935 | > 4 µM | 0.73 | 1.24 µM | 0.945 | > 4 µM
CTB-1 (B-cell lymphoma, suspension, top dose 4 µM) | 0.818 | 3.39 µM | 0.65 | 0.759 µM | 0.979 | > 4 µM
CTV-1 (acute myeloid leukaemia, suspension, top dose 4 µM) | 0.801 | 1.52 µM | 0.825 | 1.8 µM | 0.98 | > 4 µM
CW-2 (large intestine, adherent, top dose 4 µM) | 0.966 | > 4 µM | 0.962 | > 4 µM | 0.966 | > 4 µM
Ca9-22 (head and neck, adherent, top dose 4 µM) | 0.833 | 2.32 µM | 0.852 | 2.75 µM | 0.784 | 1.57 µM

Cell Line | AUC [1] | IC50 [1] | AUC [2] | IC50 [2] | AUC [3] | IC50 [3]
Ca-Ski (cervix, adherent, top dose 4 µM) | 0.89 | > 4 µM | 0.927 | > 4 µM | 0.98 | > 4 µM
CaR-1 (large intestine, adherent, top dose 4 µM) | 0.872 | > 4 µM | 0.781 | 2.63 µM | 0.867 | > 4 µM
Calu-3 (lung adenocarcinoma, adherent, top dose 4 µM) | 0.943 | > 4 µM | 0.979 | > 4 µM | 0.98 | > 4 µM
Calu-6 (lung adenocarcinoma, adherent, top dose 4 µM) | 0.851 | 3.78 µM | 0.927 | > 4 µM | 0.828 | 2.99 µM
Caov-4 (ovary, adherent, top dose 4 µM) | 0.98 | > 4 µM | 0.978 | > 4 µM | 0.98 | > 4 µM
Capan-2 (pancreas, adherent, top dose 4 µM) | 0.956 | > 4 µM | 0.898 | > 4 µM | 0.808 | 2.64 µM
ChaGo-K-1 (non-small cell lung carcinoma, adherent, top dose 4 µM) | 0.849 | 3.75 µM | 0.895 | > 4 µM | 0.96 | > 4 µM
D-247MG (glioma, adherent, top dose 4 µM) | 0.917 | > 4 µM | 0.752 | 1.78 µM | 0.972 | > 4 µM
D-263MG (glioma, adherent, top dose 4 µM) | 0.824 | 3.06 µM | 0.581 | 0.436 µM | 0.579 | 0.431 µM
D-283MED (medulloblastoma, adherent, top dose 4 µM) | 0.895 | > 4 µM | 0.751 | 1.21 µM | 0.955 | > 4 µM
D-392MG (glioma, adherent, top dose 4 µM) | 0.933 | > 4 µM | 0.85 | > 4 µM | 0.913 | > 4 µM
D-423MG (glioma, adherent, top dose 4 µM) | 0.856 | > 4 µM | 0.76 | 1.7 µM | 0.882 | > 4 µM
D-502MG (glioma, adherent, top dose 4 µM) | 0.844 | > 4 µM | 0.752 | 2.04 µM | 0.81 | 3.76 µM
D-542MG (glioma, adherent, top dose 4 µM) | 0.984 | > 4 µM | 0.981 | > 4 µM | 0.984 | > 4 µM
D-566MG (glioma, adherent, top dose 4 µM) | 0.782 | 1.65 µM | 0.864 | 3.42 µM | 0.921 | > 4 µM
DAN-G (pancreas, adherent, top dose 4 µM) | 0.992 | > 4 µM | 0.928 | > 4 µM | 0.93 | > 4 µM
DB (B-cell lymphoma, suspension, top dose 4 µM) | 0.849 | 3.59 µM | 0.664 | 0.762 µM | 0.873 | > 4 µM
DBTRG-05MG (glioma, adherent, top dose 4 µM) | 0.833 | 3.21 µM | 0.727 | 1.25 µM | 0.735 | 1.33 µM
DEL (lymphoid neoplasm, suspension, top dose 4 µM) | 0.994 | > 4 µM | 0.994 | > 4 µM | 0.994 | > 4 µM
DG-75 (Burkitt lymphoma, suspension, top dose 4 µM) | 0.869 | 3.77 µM | 0.627 | 0.564 µM | 0.931 | > 4 µM
DIFI (large intestine, adherent, top dose 4 µM) | 0.899 | > 4 µM | 0.882 | > 4 µM | 0.986 | > 4 µM

Cell Line | AUC [1] | IC50 [1] | AUC [2] | IC50 [2] | AUC [3] | IC50 [3]
DJM-1 (skin, adherent, top dose 4 µM) | 0.949 | > 4 µM | 0.901 | > 4 µM | 0.956 | > 4 µM
DK-MG (glioma, adherent, top dose 4 µM) | 0.904 | > 4 µM | 0.745 | 1.82 µM | 0.818 | 3.9 µM
DMS-79 (small cell lung carcinoma, suspension, top dose 4 µM) | 0.986 | > 4 µM | 0.987 | > 4 µM | 0.981 | > 4 µM
DMS-114 (small cell lung carcinoma, adherent, top dose 4 µM) | 0.985 | > 4 µM | 0.957 | > 4 µM | 0.985 | > 4 µM
DMS-273 (small cell lung carcinoma, adherent, top dose 4 µM) | 0.846 | 3.19 µM | 0.964 | > 4 µM | 0.947 | > 4 µM
DND-41 (T-cell leukaemia, suspension, top dose 4 µM) | 0.903 | > 4 µM | 0.832 | 2.14 µM | 0.985 | > 4 µM
DOHH-2 (B-cell lymphoma, suspension, top dose 4 µM) | 0.78 | 1.61 µM | 0.874 | 3.73 µM | 0.964 | > 4 µM
DOK (head and neck, adherent, top dose 4 µM) | 0.867 | > 4 µM | 0.827 | > 4 µM | 0.835 | > 4 µM
DOV13 (ovary, adherent, top dose 4 µM) | 0.864 | > 4 µM | 0.597 | 0.481 µM | 0.81 | 2.51 µM
DSH1 (bladder, adherent, top dose 4 µM) | 0.942 | > 4 µM | 0.826 | 2.28 µM | 0.985 | > 4 µM
DU-145 (prostate, adherent, top dose 2 µM) | 0.984 | > 2 µM | 0.883 | > 2 µM | 0.984 | > 2 µM
Daudi (Burkitt lymphoma, suspension, top dose 4 µM) | 0.906 | > 4 µM | 0.989 | > 4 µM | 0.989 | > 4 µM
Detroit562 (head and neck, adherent, top dose 4 µM) | 0.801 | 1.87 µM | 0.906 | > 4 µM | 0.973 | > 4 µM
DoTc2-4510 (cervix, adherent, top dose 4 µM) | 0.986 | > 4 µM | 0.986 | > 4 µM | 0.964 | > 4 µM
EB2 (Burkitt lymphoma, suspension, top dose 4 µM) | 0.99 | > 4 µM | 0.99 | > 4 µM | 0.99 | > 4 µM
EB-3 (Burkitt lymphoma, suspension, top dose 4 µM) | 0.984 | > 4 µM | 0.984 | > 4 µM | 0.983 | > 4 µM
EBC-1 (lung squamous cell carcinoma, adherent, top dose 4 µM) | 0.902 | > 4 µM | 0.675 | 0.825 µM | 0.655 | 0.713 µM
EC-GI-10 (oesophagus, adherent, top dose 4 µM) | 0.901 | > 4 µM | 0.842 | 2.76 µM | 0.988 | > 4 µM
ECC10 (stomach, suspension, top dose 4 µM) | 0.819 | 2.41 µM | 0.947 | > 4 µM | 0.962 | > 4 µM
EFO-21 (ovary, adherent, top dose 4 µM) | 0.809 | 3.32 µM | 0.967 | > 4 µM | 0.82 | 3.76 µM
EFO-27 (ovary, adherent, top dose 4 µM) | 0.915 | > 4 µM | 0.756 | 1.68 µM | 0.761 | 1.76 µM
